In all, about 2,000 compounds were measured (“fractional viability relative to vehicle”: median about 0.92, lowest 2% from about 0.11 on). This is one part of the list.
Tested on: TYKNU
Test: fractional viability relative to vehicle; TYKNU is a high-grade serous ovarian cancer line; higher = less growth inhibition
Settings: 72 h, genotype: OPA1 knockout (sgOPA1 #2)
How it was run: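 TYKNU control cells or lentiCRISPRv2 knockout derivatives were plated at 500 cells per well in duplicate into drug-stamped 384-well plates holding a ~2100-compound library at 2 or 10 μM. Culture was in RPMI 1640 with 10% FBS at 37 °C in 5% CO2, with 72 h of drug treatment. Viability was measured by Cell Titer Glo luminescence, and the averaged duplicate treatment wells were normalised to duplicate control wells at the same plate position.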

SMILES	fractional viability (2uM)	fractional viability (10uM)
c1nc2c(NC3CCCCC3)nc(Nc3ccc(N4CCOCC4)cc3)nc2[nH]1 [Reversine]	0.571	0.342
COc1cc2nccc(Oc3ccc(NC(=O)NC4CC4)c(Cl)c3)c2cc1C(N)=O [Lenvatinib (E7080)]	1.18	0.967
C[C@H](CCC(=O)O)[C@H]1CC[C@H]2[C@@H]3[C@@H](O)C[C@@H]4C[C@H](O)CC[C@]4(C)[C@H]3CC[C@]12C [Ursodiol]	1.21	0.876
O=C(Nc1ccncc1)c1cc([N+](=O)[O-])ccc1Cl	1.01	0.824
O=C(CCCN1CCN(c2ccccn2)CC1)c1ccc(F)cc1 [Azaperone]	0.827	1.13
COCCCN1CCC(NC(=O)c2cc(Cl)c(N)c3c2OCC3)CC1 [Prucalopride Succinat]	0.919	0.951
COCCCN1CCC(NC(=O)c2cc(Cl)c(N)c3c2OCC3)CC1 [Prucalopride]	1.02	1.04
COC(=O)C1=C(C#N)NC(C)=C(C(=O)OC(C)C)C1c1cccc([N+](=O)[O-])c1 (stereo not given) [Nilvadipine]	0.877	0.905
CNc1nc(Nc2cn(C(C)(C)C#N)nc2C)ncc1C(F)(F)F	0.801	0.885
C=CC(=O)N1C/C(=C\c2ccc([N+](=O)[O-])cc2)C(=O)/C(=C/c2ccc([N+](=O)[O-])cc2)C1	0.0989	0.111
Cc1cc(CN2CCN(c3c(Br)cnc4nc(-c5ccc(N6CCN(C)CC6)cc5)[nH]c34)CC2)no1	0.875	0.127
COc1ccc(C2CC(=O)c3c(O)cc(OC4OC(COC5OC(C)C(O)C(O)C5O)C(O)C(O)C4O)cc3O2)cc1OC (stereo not given) [Methyl-Hesperidin]	0.971	1.13
CN(C)C(=O)[C@H](O)[C@H](Cc1ccccc1)NC(=O)c1cc2cc(Cl)ccc2[nH]1	1.01	1.01
O=C(Oc1cc(S(=O)(=O)c2ccccc2)ccc1[N+](=O)[O-])c1ccc(Cl)cc1	0.86	0.716
N[C@@H](Cc1cc(I)c(Oc2ccc(O)c(I)c2)c(I)c1)C(=O)O [Liothyronine Sodium]	0.886	0.836
CCN1CCN(Cc2ccc(C(=O)Nc3ccc(C)c(Oc4ccc5c(c4)CC(=O)N5)c3)cc2C(F)(F)F)CC1	0.782	0.462
Cc1ccc(=O)n(-c2ccccc2)c1 [Pirfenidone]	0.943	0.854
Cc1c(-c2cnccn2)ssc1=S [Oltipraz]	0.969	0.849
COc1ccc(-n2c(SCCCN3C(=O)c4cccc5cccc(c45)C3=O)nnc2-c2ccncc2)cc1	0.913	0.874
Cc1cccc(CC(=O)N2CCc3c2ccc(-c2cn(C)c4ncnc(N)c24)c3F)n1	0.931	1.08

From the supplement of paper PMC5919970
